The test system of one assay is KB-3-1. The experiment in a line: growth inhibition relative to DMSO control (SRB); cervical cancer cells: KB-3-1 is the parent and KB-V1 overexpresses MDR1; SRB is the sulforhodamine B stain; higher = more growth inhibition. Particulars: 1 µM; 72 h.
A further assay has as its system KB-V1. The assay is described as above. As to conditions: 1 µM; 72 h.

Structures can show the parent of a compound that is named as a salt. This is one part of the list. Many values rest on one well or one pass, so single values are uncertain.
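Also: Read-out is SRB optical density at 490 nm, with the control being wells given 0.5% DMSO vehicle, and compound added one day after cells were plated.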

On to `O=C(NCCN1CCOCC1)c1ccc(Cl)cc1`, for which the growth inhibition in the assay on KB-3-1 is under 0%; in the assay with KB-V1 it was 2.94%.
The like results for `O=C1CCc2cc(OCCCCc3nnnn3C3CCCCC3)ccc2N1` [Cilostazol] were, in that order, 11% and 32.9%.
On the same counts, the results for `CCOc1nc2cccc(C(=O)OCc3oc(=O)oc3C)c2n1Cc1ccc(-c2ccccc2-c2noc(=O)[nH]2)cc1` [Azilsartan Medoxomil] are under 0% and 7.07%.
Consider `Cc1nnc(C(=O)NC(C)(C)c2nc(C(=O)NCc3ccc(F)cc3)c(O)c(=O)n2C)o1` [Raltegravir (MK-0518)], for which the growth inhibition in the assay with KB-3-1 stood at 48.5%; in the assay with KB-V1, 18.9%.
On the same counts, the results for `CCOC(=O)CCNc1cc(N2CCc3ccccc3CC2)nc(-c2ccccn2)n1` are 68.5% and 67.1%.
The like results for `CCc1c2c(nc3ccc(OC(=O)N4CCC(N5CCCCC5)CC4)cc13)-c1cc3c(c(=O)n1C2)COC(=O)[C@]3(O)CC` [Irinotecan HCl Trihydrate] were, in that order, 18.2% and 25.2%.
Regarding `C[C@]12CCC(=O)C=C1[C@@H]1C[C@@H]1[C@H]1[C@@H]3[C@@H]4C[C@@H]4[C@@]4(CCC(=O)O4)[C@@]3(C)CC[C@@H]12` [Drospirenone], the values for the growth inhibition in the assay on KB-3-1 and in the assay on KB-V1 were 8.5% and 33.1%, respectively.
Consider `NC(=S)N/N=C/c1ncccc1N` [Triapine], for which the growth inhibition in the assay with KB-3-1 is 52.8%; with KB-V1, 6.79%.
The like results for `CNS(=O)(=O)CCc1ccc2[nH]cc(C3CCN(C)CC3)c2c1` [Naratriptan] were, in that order, 29.4% and 14.3%.
On to `Cc1c(OCC(F)(F)F)ccnc1C[S+]([O-])c1nc2ccccc2[nH]1` (stereo not given) [Lansoprazole], for which the growth inhibition in the assay with KB-3-1 was determined as 9.61%; with KB-V1 it was 31.2%.
Regarding `O=C(O)Cc1ccccc1Nc1c(Cl)cccc1Cl` [Diclofenac Sodium], the growth inhibition stood at 44.6% in the assay with KB-3-1 and 20.3% with KB-V1.
On to `COc1ccc2c(c1)C(=O)N(CCc1ccc(S(=O)(=O)NC(=O)NC3CCCCC3)cc1)C(=O)C2(C)C` [Gliquidone], for which the growth inhibition in the assay on KB-3-1 and in the assay with KB-V1 was under 0% each time.
In the case of `O=C(Nc1cccnc1)N1CCC(Cc2cccc(Oc3ccc(C(F)(F)F)cn3)c2)CC1`, the growth inhibition in the assay with KB-3-1 is under 0%; in the assay with KB-V1, 7.81%.
Take `Nc1nc(N)c2nc(-c3cccc(O)c3)c(-c3cccc(O)c3)nc2n1`: the results for the growth inhibition in the assay with KB-3-1 and with KB-V1 were 12.1% and 34.9%, respectively.
On the same counts, the results for `O=C1NC(=O)/C(=C/c2ccc(-c3ccc(F)cc3O)o2)S1` are under 0% and under 0%.
Take `CCN1C[C@H](C)n2c(c(O)c3c(=O)n(Cc4ccc(F)c(Cl)c4)nc(C(=O)NC)c32)C1=O`: the growth inhibition with KB-3-1 and in the assay with KB-V1 was under 0% each time.
In the case of `CC(C)C[C@@H](C=O)NC(=O)[C@H](CC(C)C)NC(=O)[C@H](CC(C)C)NC(=O)OCc1ccccc1`, the growth inhibition in the assay with KB-3-1 stood at 100%; in the assay with KB-V1, 96.8%.
On the same counts, the results for `NCCCCCNCC12CC3CC(CC(C3)C1)C2` [IEM 1754 dihydrobroMide] are 13% and 70.9%.
The like results for `CNC(=O)c1ccccc1Nc1nc(Nc2ccc(N3CCOCC3)cc2OC)ncc1Cl` were, in that order, 66.9% and 49.8%.
On the same counts, the results for `COc1cc2c(N3CCN(C(=O)Nc4ccc(OC(C)C)cc4)CC3)ncnc2cc1OCCCN1CCCCC1` [Tandutinib (MLN518)] are 78.4% and 75.8%.

For the origin of these results see the supplement of paper PMC7266297.
